The whole screen tested about 350,000 compounds, of which about 31,000 (8.9%) were called active. The inconclusive results got no clear call from the source; some entries with a clear call stand among them for comparison. Calls follow the shape of the dose curve; as a rule, active = well fitted inhibition curve with a large enough effect; inconclusive = small, poorly fitted or top-dose-only effect; inactive = no such curve, though single readings can be large or run the other way. Where the call is inconclusive, the potency comes from a doubtful curve fit.
Molecular target: Histone-lysine N-methyltransferase EHMT2 (Homo sapiens) (UniProt Q96KQ7)
Assay: qHTS Assay for Inhibitors of Histone Lysine Methyltransferase G9a; also: nearly all actives have a fitted effect of over 75% in size
Conditions: G9a H3K9 monomethylation, AlphaScreen, 2 h; activity, negative = inhibition: at 59 µM (top of the series) unless noted
How it was run: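 Readings reflect AlphaScreen signal from monomethyl-H3K9 antibody detection. HMT at 20 nM; substrate b-H3K9 500 nM; cofactor SAM 20 uM; 2 h RT reaction; compounds tested as titrations in qHTS with 15 min preincubation.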
% is scaled to controls: 0 for no effect and ±100 for the full control effect; potency is read from the fitted curve at half-maximal effect; tags tell the direction and shape of the fitted curve.

Sequence of UniProt Q96KQ7 (Q96KQ7 whole entry, looked up): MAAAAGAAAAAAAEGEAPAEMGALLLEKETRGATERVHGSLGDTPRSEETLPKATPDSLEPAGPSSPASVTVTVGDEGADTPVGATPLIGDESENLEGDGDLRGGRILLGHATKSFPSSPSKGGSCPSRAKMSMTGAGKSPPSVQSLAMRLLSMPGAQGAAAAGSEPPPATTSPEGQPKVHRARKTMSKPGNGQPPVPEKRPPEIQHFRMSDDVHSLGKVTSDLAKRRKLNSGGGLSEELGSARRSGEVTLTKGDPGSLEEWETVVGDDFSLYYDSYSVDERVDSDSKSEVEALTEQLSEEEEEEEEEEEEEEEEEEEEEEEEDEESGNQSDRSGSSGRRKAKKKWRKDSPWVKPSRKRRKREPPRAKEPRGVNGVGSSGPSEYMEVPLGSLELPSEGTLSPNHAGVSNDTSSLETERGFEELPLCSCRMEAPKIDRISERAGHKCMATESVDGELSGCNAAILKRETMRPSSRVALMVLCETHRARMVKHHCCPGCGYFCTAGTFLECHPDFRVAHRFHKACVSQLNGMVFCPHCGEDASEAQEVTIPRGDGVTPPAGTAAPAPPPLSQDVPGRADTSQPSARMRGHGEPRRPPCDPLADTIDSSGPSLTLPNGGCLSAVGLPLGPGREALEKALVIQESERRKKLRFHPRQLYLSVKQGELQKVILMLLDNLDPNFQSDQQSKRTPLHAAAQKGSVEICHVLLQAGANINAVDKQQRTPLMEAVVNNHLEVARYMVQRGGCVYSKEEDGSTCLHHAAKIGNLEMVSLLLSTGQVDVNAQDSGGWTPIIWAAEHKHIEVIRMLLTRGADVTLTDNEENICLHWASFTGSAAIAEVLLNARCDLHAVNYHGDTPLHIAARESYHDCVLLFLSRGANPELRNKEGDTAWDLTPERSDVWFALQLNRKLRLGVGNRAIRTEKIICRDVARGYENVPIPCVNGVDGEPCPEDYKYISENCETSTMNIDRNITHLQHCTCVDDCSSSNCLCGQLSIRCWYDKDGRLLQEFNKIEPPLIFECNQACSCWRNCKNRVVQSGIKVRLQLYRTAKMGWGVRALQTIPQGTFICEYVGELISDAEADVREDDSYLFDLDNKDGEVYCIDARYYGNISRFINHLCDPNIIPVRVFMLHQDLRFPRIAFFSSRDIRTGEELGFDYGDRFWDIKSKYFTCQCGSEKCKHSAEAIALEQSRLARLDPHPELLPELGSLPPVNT

SMILES | activity, negative = inhibition | Potency
CC(C)Cn1c(=O)c2sccc2n2c(CCCC(=O)NCC(C)c3ccccc3)nnc12 (stereo unspecified) | inactive: 8.18% | 
COCCCN1C(=O)C(=O)/C(=C(/O)c2ccc(S(=O)(=O)N3CCOCC3)cc2)C1c1ccc(OC)cc1 (stereo unspecified) |  | active: 39.8 µM
Cc1cccc(C(=O)Nc2c(-c3ccc(F)cc3)nc3ccccn23)c1 | inactive: -10.8% | 
CCn1c(=O)c2cc(C(=O)Nc3cc(C)c(Cl)cc3OC)sc2c2ccccc21 | inactive: 7.55% | 
COc1cc(NC(=O)c2ccccc2[N+](=O)[O-])ccc1NC(=O)C(C)C |  | inconclusive: 89.1 µM [inhibitor, single point]
CCOC(=O)Cc1csc(NC(=S)NC(=O)c2ccc(C)cc2)n1 | inactive: 12.2% [at 102 µM] | 
CC(NC(=O)OCc1ccccc1)C(=O)Oc1cc2oc(=O)cc(-c3ccccc3)c2cc1Cl (stereo unspecified) | inactive: 18% | 
Cc1ccc(CN2CCN(/N=C/c3ccccc3)CC2)cc1 |  | inconclusive: 39.8 µM [inhibitor, partial curve]
O=C(O)C1CCN1C1CCCCC1 (stereo unspecified) |  | inconclusive: 89.1 µM [inhibitor, single point]
Cc1cccc(CS(=O)(=O)c2ncc(Cl)c(C(=O)Nc3ccc(F)cc3)n2)c1 |  | active: 28.2 µM
CCc1c(C)nc(N)n2c(SCC(=O)NC3CCCCC3)nnc12 | inactive: -19.6% [at 102 µM] | 
CCCN1CCN(C(=O)c2ccc(-c3ccc([N+](=O)[O-])cc3)o2)CC1 |  | inconclusive: 6.31 µM [inhibitor, single point]
CN1C/C(=C\c2ccc(N3CCOCC3)cc2)C(=O)/C(=C/c2ccc(N3CCOCC3)cc2)C1 |  | inconclusive: 25.1 µM [inhibitor, single point]
O=C(c1ccccc1O)N1N=C(C(F)(F)F)CC1(O)c1ccc([N+](=O)[O-])cc1 (stereo unspecified) |  | inconclusive: 79.4 µM [inhibitor, single point]
CCN(CC)S(=O)(=O)c1cc(NC(=O)C(C)Nc2ccccc2N2CCOCC2)ccc1C (stereo unspecified) |  | inconclusive: 79.4 µM [inhibitor, single point]
COc1ccc(C(=O)COC(=O)C(CCSC)NS(=O)(=O)c2ccc(Cl)cc2)cc1 (stereo unspecified) |  | inconclusive: 100 µM [inhibitor, single point]
CC1CCC2(CC1)NC(=O)N(CC(=O)NCCc1ccc(F)cc1)C2=O (stereo unspecified) | inactive: 20.2% | 
CCCCCc1cc(=O)oc2c(C(CCN(CC)CC)c3ccc(N(C)C)cc3)c(OC)cc(OC)c12 (stereo unspecified) |  | inconclusive: 5.62 µM [inhibitor, single point]
COc1ccc(-c2cc(C(=O)Nc3ccccc3O)c3ccccc3n2)cc1OC |  | inconclusive: 3.55 µM [inhibitor, partial curve, poor fit]
CCOC(=O)C1=C(N)Oc2ccc3ccccc3c2C1c1ccc(O)c(OC)c1 (stereo unspecified) |  | inconclusive: 89.1 µM [inhibitor, single point]
COc1cc(NS(=O)(=O)c2ccc(N/C=C(\C#N)c3nc4ccccc4o3)cc2)nc(OC)n1 | inactive: 16.2% [at 2.33 µM] | 
O=C(O)CCc1ccc(-c2ccc(Br)cc2)o1 |  | active: 15.8 µM
COc1ccc(C(=O)Nc2nc(N)n(-c3ccccc3)n2)cc1OC | inactive: 34.7% [at 102 µM] | 
CC(=O)N(Cc1cccnc1)c1nc2c(C)cc(C)cc2s1 |  | inconclusive: 3.98 µM [inhibitor, single point]

SMILES | activity, negative = inhibition | Potency
CC(=O)Nc1ccc(Sc2ncccc2C(=O)Nc2ccc(OC(F)(F)F)cc2)cn1 | inconclusive: -54.4% [inhibitor] [at 12.7 µM] | 
Cn1nc([N+](=O)[O-])nc1Oc1ccccc1 | inactive: -50.4% [at 2.33 µM] | 
CCOc1ccccc1-c1nc(-c2cc3ccc(C)cc3[nH]c2=O)no1 |  | inconclusive: 25.1 µM [inhibitor, partial curve, poor fit]
NC(=O)N(CCC(=O)O)c1ccccc1 |  | inconclusive: 39.8 µM [inhibitor, single point]
O=C(Nc1ncn[nH]1)c1ccccc1Br | inactive: -5.42% | 
Cc1csc2nc(CCNS(=O)(=O)c3ccc4c(c3)OCCO4)cn12 |  | active: 50.1 µM
COc1cccc(/C(O)=C2/C(=O)C(=O)N(CCN(C)C)C2c2ccc(Br)cc2)c1 (stereo unspecified) |  | inconclusive: 89.1 µM [inhibitor, single point]
Cc1nnc(N2CCCC(C(=O)Nc3ccccc3C(F)(F)F)C2)c2nn(-c3ccccc3)c(C)c12 (stereo unspecified) |  | inconclusive: 7.94 µM [inhibitor, partial curve, poor fit]
CN(C)c1ccc(CNC(=O)c2cc(S(=O)(=O)N3CCOCC3)cn2C)cc1 |  | active: 39.8 µM
Cc1ccc(NS(=O)(=O)c2ccc3[nH]c4c(c3c2)CCCC4)c(C)c1 |  | active: 15.8 µM
CCN(CC)c1ccc(/C=C2/C(=O)N(c3ccc([N+](=O)[O-])cc3)N=C2N2CCOCC2)cc1 |  | inconclusive: 35.5 µM [inhibitor, partial curve, poor fit]
CN(C)Cc1ccccc1Sc1cccc2ccccc12 |  | inconclusive: 7.94 µM [inhibitor, partial curve]
CCCC(=O)NC(=S)Nc1ccc(Cl)cn1 | inconclusive: -83.6% [inhibitor] | 
O=C1OC2(CCCCC2)OC(=O)C1=CNc1nccs1 |  | active: 50.1 µM
Oc1cccc(/C=N/N2CCCCC2)c1O |  | active: 44.7 µM
CCN(CC)C(=O)c1sc2nc(N3CCOCC3)c3c(c2c1N)CCCC3 |  | active: 8.91 µM
CC(=O)Nc1cccc(OCC(=O)/C=C2\N(C)c3ccccc3C2(C)C)c1 |  | inconclusive: 39.8 µM [inhibitor, partial curve, poor fit]
CCc1ccc2oc(=O)cc(CN3CCN(CCO)CC3)c2c1 | inactive: -17.7% [at 102 µM] | 
COc1cc(/C=C2\SC(=O)N(CC(=O)Nc3ccc(C)cc3)C2=O)cc(Cl)c1OCC(=O)O |  | inconclusive: 22.4 µM [inhibitor, partial curve, poor fit]
CCc1ccccc1NC(=O)CSC1=C(C#N)C(c2ccc3c(c2)OCO3)C2=C(CCCC2=O)N1 (stereo unspecified) |  | inconclusive: 2.51 µM [inhibitor, partial curve, poor fit]
Cc1ccc(C)c(N(Cc2cc3ccc(C)cc3[nH]c2=O)C(=O)c2ccco2)c1 | inactive: -4.52% | 
Cc1ccc(C)c(S(=O)(=O)NC(CCC(N)=O)C(=O)O)c1 (stereo unspecified) |  | inconclusive: 89.1 µM [inhibitor, single point]
O=C(COC(=O)C1CCN(S(=O)(=O)c2ccc3c(c2)OCCO3)CC1)NC1CCCCC1 |  | inconclusive: 8.91 µM [inhibitor, partial curve, poor fit]
CC1CCCN(c2nc(NCc3ccco3)nc(N)c2[N+](=O)[O-])C1 (stereo unspecified) |  | inconclusive: 31.6 µM [inhibitor, single point]

SMILES | activity, negative = inhibition | Potency
Cc1cc(=O)n2[nH]c(NCc3ccc(F)cc3)nc2n1 | inactive: -41.1% | 
Cc1[nH]c2ccc(C(=O)NCCCN3CCN(C)CC3)cc2c1C |  | inconclusive: 56.2 µM [inhibitor, partial curve, poor fit]
CCOc1ccc2nc(-c3ccccc3)[nH]c2c1 |  | inconclusive: 70.8 µM [inhibitor, partial curve, poor fit]
O=C1CC(c2ccccc2F)C2=C(COC2=O)N1 (stereo unspecified) |  | inconclusive: 50.1 µM [inhibitor, partial curve, poor fit]
Cc1cc(-n2c(C)c3c(C)nnc(C)c3c2C)ccc1N |  | inconclusive: 44.7 µM [inhibitor, partial curve]
CC/C(=N\NC(=O)c1ccc(N(C)C)cc1)c1ccccc1 |  | active: 28.2 µM
COc1ccc(NC(=O)c2sc3nc4c(cc3c2N)CN(C(C)C)CC4)c(OC)c1 |  | active: 11.2 µM
O=C(c1ccc2c(c1)OCO2)C1CCCN(Cc2ccc(OC(F)F)cc2)C1 (stereo unspecified) | inactive: 10.3% [at 102 µM] | 
O=C(COC(=O)c1ccc(F)cc1F)Nc1ccc2[nH]c(=O)[nH]c2c1 |  | inconclusive: 44.7 µM [inhibitor, partial curve, poor fit]
O=C(CCN1C(=O)c2ccccc2C1=O)Nc1ccncc1 |  | inconclusive: 44.7 µM [inhibitor, partial curve, poor fit]
CC(=O)c1c(C)[nH]c(=S)c(C#N)c1-c1ccc(Cl)cc1 |  | active: 4.47 µM
C=CCc1cccc2cc(C(=O)N(C)C)c(=O)oc12 |  | inconclusive: 89.1 µM [inhibitor, single point]
COC(=O)CSc1nc(NC#N)nc(NC(C)(C)C)n1 |  | inconclusive: 79.4 µM [inhibitor, single point]
COc1ccc(N/C=C\C(=O)c2ccc3c(c2)OCO3)cc1 |  | inconclusive: 25.1 µM [inhibitor, single point]
O=c1cc(Nc2ccc3c(c2)OCCO3)[nH]c(=O)n1C1CCCCC1 | inactive: -8.24% | 
CCOC(=O)CSc1nc2ccc(NC(=O)c3ccc(F)cc3)cc2s1 | inactive: -34% | 
CN1CCN(S(=O)(=O)c2cccc(C(=O)N(Cc3nnc(-c4ccc(Cl)cc4)o3)C3CC3)c2)CC1 |  | inconclusive: 50.1 µM [inhibitor, partial curve]
CCC(Nc1nc(-c2ccccc2)nc2ccccc12)C(=O)O (stereo unspecified) | inactive: -10.4% [at 102 µM] | 
COc1cccc(C(=O)c2sc(NC(C)C)nc2N)c1 |  | inconclusive: 39.8 µM [inhibitor, single point]
CN(C)c1ccc(/C=C/C(=O)c2ccc(O)cc2)cc1[N+](=O)[O-] |  | inconclusive: 28.2 µM [inhibitor, partial curve, poor fit]
O=C(CSc1nc2c(c(=O)n1-c1ccc(Cl)cc1)SCC2)Nc1ccc2c(c1)OCCO2 |  | active: 44.7 µM
CCOC(=O)C1(Cc2cccc(F)c2)CCN(Cc2nc(CC)[nH]c2C)CC1 |  | active: 39.8 µM
CC1(C)CC(=O)C(C=NCCN2CCN(C3CC(=O)N(c4ccc(Br)cc4)C3=O)CC2)=C(O)C1 (stereo unspecified) | inactive: 6.43% [at 0.501 µM] | 

From PubChem BioAssay AID504332 (National Center for Advancing Translational Sciences (NCATS), 2011)
